Assay results reported in patent publication EP4818210A1 (Minghui Pharmaceutical (Hangzhou) Ltd., dated 2025).
Like-named read-outs stand apart in the source and are kept apart here. Blank lines part the entries; values can stand above or below the binder they belong to.

Experiments:
[1] = target: T1, Her2/ERBB2 Protein, Human, Recombinant (ECD, His Tag) (human, UniProt P04626 part only); experiment: ELISA, coated HER2 ECD-His
T1 construct: extracellular domain; bought reagent; also called human HER2 antigen; recombinant human HER2; not shown: His tag

[2] = target: T1, Her2/ERBB2 Protein, Human, Recombinant …; experiment: ELISA, coated HER2 ECD-His; remark: listed apart in the source
[3] = target: T2, Human HER3 Protein, His Tag (ACRO, Cat. No. ER3-H5223) (human, UniProt P21860 part only); experiment: ELISA, coated HER3-His
T2 construct: bought reagent; not shown: His tag

[4] = target: T3, Human HER2, His Tag (ACRO, Cat. No. HE2-H5225) (human, UniProt P04626 part only); experiment: ELISA, coated human HER2-His
T3 construct: bought reagent; not shown: His tag

[5] = target: T3, Human HER2, His Tag (ACRO, Cat. No. …); experiment: ELISA, coated human HER2-His; remark: listed apart in the source
[6] = target: T4, Human HER4 Protein, His Tag (Sino Biological, Cat. No. 10363-H08H) (human, UniProt Q15303 26-649); experiment: ELISA, coated HER4-His
T4 construct: bought reagent; not shown: His tag
T4 sequence (looked up): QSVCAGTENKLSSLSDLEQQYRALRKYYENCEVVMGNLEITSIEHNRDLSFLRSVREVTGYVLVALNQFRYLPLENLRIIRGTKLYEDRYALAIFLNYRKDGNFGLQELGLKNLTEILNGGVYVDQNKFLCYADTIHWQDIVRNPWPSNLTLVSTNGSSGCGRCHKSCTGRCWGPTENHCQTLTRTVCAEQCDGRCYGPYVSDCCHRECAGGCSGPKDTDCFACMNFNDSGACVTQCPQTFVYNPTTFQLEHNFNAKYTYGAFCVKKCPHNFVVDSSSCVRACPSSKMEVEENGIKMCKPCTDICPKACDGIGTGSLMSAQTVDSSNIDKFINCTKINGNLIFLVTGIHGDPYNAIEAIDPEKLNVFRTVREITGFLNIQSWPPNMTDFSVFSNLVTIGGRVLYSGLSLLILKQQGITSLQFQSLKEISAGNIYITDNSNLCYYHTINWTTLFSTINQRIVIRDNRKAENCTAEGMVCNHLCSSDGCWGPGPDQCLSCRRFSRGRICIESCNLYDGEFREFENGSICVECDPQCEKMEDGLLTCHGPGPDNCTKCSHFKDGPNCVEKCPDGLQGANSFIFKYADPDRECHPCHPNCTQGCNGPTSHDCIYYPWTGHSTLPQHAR

[7] = target: T1, Her2/ERBB2 Protein, Human, Recombinant …; experiment: ELISA, coated HER2 ECD-His; remark: listed apart in the source

EC50 [1]: 2.01 ng/mL
EC50 [2]: 3.01 ng/mL
B1: MHAB14-14 (Fc fusion)
chain: QVQLVESGGGLVQPGGSLRLSCAASGFIFGNYPMNWYRQAPGKEREFVAVITRDGGVTRYAASVKGRFTITRDNAKNTVFLQMNSLKLEDTAVYYCHNPNYNAWGQGTQVTVAS[human IgG1 Fc with changes not printed]
notes: VHH-Fc fusion from CHO cells; also called parental MHAB14-14

EC50 [4]: 9.91 ng/mL
EC50 [1]: 4.97 ng/mL
EC50 [5]: 8.45 ng/mL
B2: MHAB14-14-6 (Fc fusion)
chain: QVQLVESGGGLVQPGGSLRLSCAASGFIFGNYPMNWYRQAPGKEREFVAVITRDGGVTYYADSVKGRFTISRDNAKNTVYLQMNSLRAEDTAVYYCHNPNYNAWGQGTQVTVSS[human IgG1 Fc with changes not printed]
notes: humanized VHH-Fc fusion
binding result [3]: no binding (tested: 10 µg/mL (initial concentration))
binding result [6]: no binding (tested: 10 µg/mL (initial concentration))

EC50 [2]: 1.76 ng/mL
EC50 [7]: 1.19 ng/mL
B3: MHAB14-10 (Fc fusion)
chain: QVQLVESGGGMVQPGGSLRLSCAASGITFRHYTMSWYRQAPGKERELVASITYGGVTTNYADSVKGRFTLSRDDAKTTAYLQMTGLKPEDTAVYYCHADWTAAGLNHWGQGTQVTVSS[human IgG1 Fc with changes not printed]
notes: VHH-Fc fusion from CHO cells; also called parental MHAB14-10

EC50 [7]: 1.47 ng/mL
B4: MHAB14-10-5 (Fc fusion)
chain: QVQLVESGGGLVQPGGSLRLSCAASGITFRHYTMSWVRQAPGKERELVASITYGGVTTYYADSVKGRFTISRDNAKNTLYLQMNSLRPEDTAVYYCHADWTAAGLNHWGQGTQVTVSS[human IgG1 Fc with changes not printed]
notes: humanized VHH-Fc fusion
